{"source": "the RNAGym collection of RNA variant scans (doi:10.7554/elife.90254)", "parents": {"B1": {"name": "LINE1-full (parent)", "chain": "UACGUAGGUGGUUUUCCCCUGAUAGUGCUAAGGGGGCCUGGAAGUUUGGACUGGGCAGAGCUCAACACAGCGUGGCAAAGUGGCUGUGGCUAGACUGCCUCUCUGGAUUCCUCGUCACUCAGCAGGGCAUCUCUGAGAGAAAUGCC"}}, "note": "Read counts are not given, so values of variants with three or more changes are uncertain."}
{"variants_of": "B1", "experiment": "self-cleavage, relative activity (ratio to wild type); higher = more cleavage; in vitro, sequencing; the parent is a self-cleaving ribozyme"}
{"variant": "U62C U102A A138G", "self-cleavage": 0}
{"variant": "A64G C118U A121G", "self-cleavage": 0.22}
{"variant": "U62C U81C U104C G105A", "self-cleavage": 0.06}
{"variant": "U62A U73C C146U", "self-cleavage": 0}
{"variant": "A59G A64C A129G A141G", "self-cleavage": 0}
{"variant": "U62C A69U U132C A138G", "self-cleavage": 0}
{"variant": "A57G U104A U132C", "self-cleavage": 0.34}
{"variant": "A64G A140G A142G", "self-cleavage": 0.09}
{"variant": "G58U U132C A142U", "self-cleavage": 0.03}
{"variant": "C61U U104C U115C C116U", "self-cleavage": 0.1}
{"variant": "A64G U73C U134A", "self-cleavage": 0.3}
{"variant": "A59U A64U A79G", "self-cleavage": 0.68}
{"variant": "A64C C66A U81A A138G", "self-cleavage": 0.02}
{"variant": "A57U U81A U102C", "self-cleavage": 0.15}
{"variant": "U62C U108C C111U", "self-cleavage": 0.06}
{"variant": "A64G U81A A141G", "self-cleavage": 0.38}
{"variant": "G58A U115C U119A A129G", "self-cleavage": 0.03}
{"variant": "A59U C116A A140G", "self-cleavage": 0.6}
{"variant": "U62C A65G A140G", "self-cleavage": 0.11}
{"variant": "U62C A64U A136U A142G", "self-cleavage": 0}
{"variant": "U62C G82A A141G", "self-cleavage": 0.03}
{"variant": "U62C A77G A124G", "self-cleavage": 0}
{"variant": "A57U U73A U81A", "self-cleavage": 0.01}
{"variant": "A57U A121G A141U", "self-cleavage": 0.23}
{"variant": "A57U G88A A124G", "self-cleavage": 0.03}
{"variant": "A64G C76U U81A A94G U104C", "self-cleavage": 0.24}
{"variant": "C63U C76A A117G", "self-cleavage": 0.75}
{"variant": "U62C C99U A117C", "self-cleavage": 0.05}
{"variant": "U62C U73G A136G", "self-cleavage": 0.1}
{"variant": "A57U U62C A129G A141G A142U", "self-cleavage": 0.05}
{"variant": "A64G A79G A138U", "self-cleavage": 0.18}
{"variant": "U62A U119A A142G", "self-cleavage": 0.05}
{"variant": "G58A U104C U132C", "self-cleavage": 0.08}
{"variant": "A59U U62C U85C U87A", "self-cleavage": 0}
{"variant": "A59G C71A U96C", "self-cleavage": 0.02}
{"variant": "A57U U62C A136U", "self-cleavage": 0}
{"variant": "G58A U73C G74A U104C A107C U134C", "self-cleavage": 0.12}
{"variant": "A64G A117G A142G", "self-cleavage": 0}
{"variant": "A64G A117G A142U", "self-cleavage": 0.3}
{"variant": "U62A A67G A121G U130A A141G", "self-cleavage": 0}
{"variant": "A59G A77G A107U U115C C120U", "self-cleavage": 0.17}
{"variant": "C61A U100A A124G U130C", "self-cleavage": 0}
{"variant": "A57U U104G U119A C120U", "self-cleavage": 0.04}
{"variant": "A59G A92C A124U", "self-cleavage": 0}
{"variant": "U62C U109A A141G", "self-cleavage": 0.04}
{"variant": "G60A G106A U108C", "self-cleavage": 0.03}
{"variant": "G60A U73C U112C", "self-cleavage": 0.02}
{"variant": "C63U A77G U119A A129G", "self-cleavage": 0.51}
{"variant": "A64G A65U A79G", "self-cleavage": 0.08}
{"variant": "A59G C71U U100C", "self-cleavage": 0.11}
{"variant": "A59C U73A U87A A138U", "self-cleavage": 0.05}
{"variant": "A59U U62C A92G", "self-cleavage": 0.11}
{"variant": "A59U G74A U100C U109C A140U", "self-cleavage": 0.92}
{"variant": "A64G G82A U100C C128U A140G", "self-cleavage": 0.22}
{"variant": "A59G U62C U73A A138G", "self-cleavage": 0.16}
{"variant": "U62C A94C A142G", "self-cleavage": 0}
{"variant": "A57U G72A A107G U130C", "self-cleavage": 0.08}
{"variant": "U62A A78G A92U A94G", "self-cleavage": 0}
{"variant": "A57U A79G A124G A141G", "self-cleavage": 0}
{"variant": "A59G A69G A79G", "self-cleavage": 0.17}
{"variant": "A59G U132C U134A", "self-cleavage": 0.1}
{"variant": "A59G U119C U134C", "self-cleavage": 0}
{"variant": "A59U A94G A136G", "self-cleavage": 2.14}
{"variant": "A57U A65U U81A U85C", "self-cleavage": 0.05}
{"variant": "A64G C68G A94U U112C", "self-cleavage": 0}
{"variant": "U62C U96C C111U G127A", "self-cleavage": 0.04}
{"variant": "U62C A124G U130C", "self-cleavage": 0.1}
{"variant": "A57U U132C A141G", "self-cleavage": 0.04}
{"variant": "U62C C71A A92G A138U A140G", "self-cleavage": 0}
{"variant": "U62C A94G A140G", "self-cleavage": 0}
{"variant": "A57G U100C U134C", "self-cleavage": 0.71}
{"variant": "A59U U108C A136G", "self-cleavage": 0.2}
{"variant": "U62C C101U U119C", "self-cleavage": 0.04}
{"variant": "A64G G70A A136G", "self-cleavage": 0.11}
{"variant": "U62C A136G U143A", "self-cleavage": 0.03}
{"variant": "A59U U96A A129G A136U", "self-cleavage": 0.05}
{"variant": "A57U G122A A140G", "self-cleavage": 0.35}
{"variant": "G60U C71U G97A U108C", "self-cleavage": 0.02}
{"variant": "U62C A140G A141G", "self-cleavage": 0.01}
{"variant": "U62C A67G U85A", "self-cleavage": 0.11}
{"variant": "U62A A92G U108C", "self-cleavage": 0.04}
{"variant": "A64G U73C U143C", "self-cleavage": 0.9}
{"variant": "C63U U81A U119A", "self-cleavage": 0.54}
{"variant": "U62C U109C A138U", "self-cleavage": 0.05}
{"variant": "A64G A77G A117G", "self-cleavage": 0.35}
{"variant": "G58A A67G U132A", "self-cleavage": 0.07}
{"variant": "A59G U85C A138U", "self-cleavage": 0}
{"variant": "A64G A79G U115A", "self-cleavage": 0.43}
{"variant": "U62C G75A U96C A136G", "self-cleavage": 0}
{"variant": "U62A U73A U81A", "self-cleavage": 0.04}
{"variant": "U62C C71U U85C A129U A136G", "self-cleavage": 0.01}
{"variant": "C63U A79G A121U A140G", "self-cleavage": 0.29}
{"variant": "U62C A79G A94U A121U", "self-cleavage": 0.05}
{"variant": "A57U U73C G74A A77G A138G A141G", "self-cleavage": 0.12}
{"variant": "A59G U73C U96A", "self-cleavage": 0.08}
{"variant": "G60A A77C A78U U81C U100C A124U", "self-cleavage": 0}
{"variant": "U62A A64C U73C C113U", "self-cleavage": 0.07}
{"variant": "U62A A79G C113U A129G", "self-cleavage": 0.05}
{"variant": "U62C U100G A124U", "self-cleavage": 0}
{"variant": "A59G U62C U81A U134A", "self-cleavage": 0.09}
{"variant": "U62C U81A U87A", "self-cleavage": 0.01}
{"variant": "U62C U81A U87C", "self-cleavage": 0.13}
{"variant": "A59G A77G U96A G126U", "self-cleavage": 0.06}
{"variant": "U62A G83A U100C", "self-cleavage": 0.05}
{"variant": "A64G A77G U132C", "self-cleavage": 0}
{"variant": "U62G A69G U108C A141G", "self-cleavage": 0}
{"variant": "U62A A64G U115C", "self-cleavage": 0.15}
{"variant": "C61U A129G A141G", "self-cleavage": 0.05}
{"variant": "A59U G89A U134A", "self-cleavage": 0.02}
{"variant": "A59G A129G A136U", "self-cleavage": 0.08}
{"variant": "A59G C103A A129U", "self-cleavage": 0.12}
{"variant": "A64G A107U U112A A140G U143A", "self-cleavage": 0.29}
{"variant": "U62A A69G U87C", "self-cleavage": 0.31}
{"variant": "G60A U62A A78G U85C U104A A121U", "self-cleavage": 0.04}
{"variant": "U62C A64U A121U", "self-cleavage": 0.07}
{"variant": "A64G G74A U130C", "self-cleavage": 0.5}
{"variant": "A57U U109G U119C", "self-cleavage": 0}
{"variant": "A64G A92G U112C A141G", "self-cleavage": 0}
{"variant": "G60A U102A U108C U115C C120U C128A A142G", "self-cleavage": 0}
{"variant": "C61U A77U U81A U108C A124G U132C", "self-cleavage": 0.01}
{"variant": "U62C A92G U134C", "self-cleavage": 0.07}
{"variant": "A59U G97U U119C", "self-cleavage": 0.08}
{"variant": "U62A A78G G82U C99U", "self-cleavage": 0.02}
{"variant": "A59U U91C C99A A141G", "self-cleavage": 0.11}
{"variant": "C63U U112C U130C", "self-cleavage": 0.21}
{"variant": "A64G C95U A107U U143C", "self-cleavage": 0.08}
{"variant": "U62C U132G A140G C145A", "self-cleavage": 0}
{"variant": "A57G U108C A117U", "self-cleavage": 2.47}
{"variant": "A57U A107G U134A", "self-cleavage": 0.13}
{"variant": "A57G U112C U130C A140G", "self-cleavage": 1.21}
{"variant": "A57G U109C C113U", "self-cleavage": 0.45}
{"variant": "C63U U73C A77U", "self-cleavage": 0.31}
{"variant": "U62C A94G U143A", "self-cleavage": 0}
{"variant": "U62C A94G U96C C113U", "self-cleavage": 0}
{"variant": "U62C U104G A121U A124G U134A", "self-cleavage": 0.23}
{"variant": "U62C U73A U91A", "self-cleavage": 0.03}
{"variant": "U62G U96C C113A", "self-cleavage": 0}
{"variant": "G58A C71A A77G A124G A140G", "self-cleavage": 0.02}
{"variant": "A59U U115C U130C", "self-cleavage": 0.62}
{"variant": "A59C U81C G93U", "self-cleavage": 0.1}
{"variant": "A57G U96C A141G", "self-cleavage": 2.45}
{"variant": "U62A U134C A140G", "self-cleavage": 0}
{"variant": "U62C C71U A117G", "self-cleavage": 0.05}
{"variant": "U62C A65G A79G", "self-cleavage": 0}
{"variant": "U62C A64G U134A", "self-cleavage": 0.06}
{"variant": "C63U U115C U119G A121G", "self-cleavage": 0.23}
{"variant": "A59G U104C U132C", "self-cleavage": 0.54}
{"variant": "G58A U100C A142G", "self-cleavage": 0.06}
{"variant": "A57U G58A U85C A136G", "self-cleavage": 0.04}
{"variant": "A59G U62C A107G", "self-cleavage": 0}
{"variant": "A57G U108C A142G", "self-cleavage": 1.15}
{"variant": "A57U A79U U112C A140G A142G", "self-cleavage": 0.03}
{"variant": "A64C A69G A141G", "self-cleavage": 0.08}
{"variant": "C61U A77G U85C U87A U104C", "self-cleavage": 0}
{"variant": "A57U U119A A136G", "self-cleavage": 0.13}
{"variant": "A59C U81A U102C C128U", "self-cleavage": 0.88}
{"variant": "A59G U73C C110A U134A", "self-cleavage": 0}
{"variant": "A59U U108C A141G", "self-cleavage": 1.39}
{"variant": "C61A A64G U104A G114A", "self-cleavage": 0.05}
{"variant": "A59U U100C U134C", "self-cleavage": 1.5}
{"variant": "G60A A77G U112G", "self-cleavage": 0.04}
{"variant": "A59G A64G A142G", "self-cleavage": 0}
{"variant": "A59G U100C A140G A141G", "self-cleavage": 0.16}
{"variant": "A64G A78G A124U", "self-cleavage": 0}
{"variant": "U62C C71U A141G", "self-cleavage": 0.03}
{"variant": "A59G U73A A107G U112A", "self-cleavage": 0.27}
{"variant": "U62C U100C A141G", "self-cleavage": 0.06}
